According to the supplement of paper PMC9446081:
Hit rate of the full screen: of about 39,000 compounds, about 220 (0.56%) showed activity. Some of the results follow.

Each compound was assayed on Escherichia coli K-12 BW25113 (assay: relative growth (OD600 normalised to plate interquartile mean) (fraction); higher = less growth inhibition, active = 0.2 or less). Conditions: 50 µM; LB; incubation time: overnight (16-24 h).
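Note: static incubation at 37 °C against the wild-type strain, values averaged over two biological replicates.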

SMILES | relative growth
O=C(C[C@@H]1CC[C@H]2[C@@H](COC[C@H](O)CN2S(=O)(=O)c2cccnc2)O1)NCc1ccc(Cl)c(Cl)c1 | inactive: 0.992
C[C@@H]1CCCCO[C@@H](CN(C)C(=O)Nc2ccc(F)cc2)[C@H](C)CN([C@@H](C)CO)C(=O)c2cc(NC(=O)Nc3cccc4ccccc34)ccc2O1 | inactive: 1.02
Cc1ccc(S(=O)(=O)N(C)C[C@@H]2Oc3ccc(NS(=O)(=O)c4cn(C)cn4)cc3C(=O)N([C@H](C)CO)C[C@H]2C)cc1 | inactive: 1.01
C[C@@H]1CO[C@]2(O[C@H]3C[C@H]4[C@H]5C[C@H](O[C@H]6O[C@@H](C)[C@@H](O)[C@@H](O[C@@H]7O[C@@H](C)[C@H](O)[C@@H](O)[C@H]7O)[C@@H]6O)[C@H]6C[C@@H](O)CC[C@]6(C)[C@@H]5CC[C@]4(C)[C@H]3[C@@H]2C)[C@@H](O)C1 | inactive: 1
CCNC(=O)C[C@@H]1C=C[C@@H](NC(=O)C2CC2)[C@H](CO)O1 | inactive: 0.98
C[C@@H]1CCCCO[C@@H](CN(C)CC2CC2)[C@@H](C)CN([C@H](C)CO)C(=O)c2cc(NC(=O)Cc3ccccc3)ccc2O1 | inactive: 0.966
C[C@@H]1CCCCO[C@@H](CN(C)Cc2ccc(C(=O)O)cc2)[C@@H](C)CN([C@@H](C)CO)C(=O)c2cc(NS(=O)(=O)c3ccc(F)cc3)ccc2O1 | inactive: 1.02
CS(=O)(=O)Nc1ccc2c(c1)[C@H]1C[C@H](CC(=O)NCc3ccc(-c4ccccc4)cc3)O[C@H](CO)[C@H]1O2 | inactive: 1
C[C@@H]1CN([C@@H](C)CO)C(=O)c2cccc(NC(=O)CCCCCC(=O)Nc3ccccc3N)c2O[C@@H]1CN(C)Cc1ccc(Cl)c(Cl)c1 | inactive: 1.04
O=C(C[C@@H]1CC[C@H]2[C@@H](COC[C@H](O)CN2S(=O)(=O)c2ccc(F)cc2)O1)N[C@H]1CCN(Cc2ccccc2)C1 | inactive: 1.01
CC(CCC(=O)O)C1CCC2C3C(O)CC4CC(O)CCC4(C)C3CC(O)C12C (configuration not stated) | inactive: 1.08
C[C@H](CO)N1C[C@H](C)[C@@H](CN(C)Cc2ccccc2)Oc2ccc(NS(=O)(=O)c3cn(C)cn3)cc2C1=O | inactive: 0.929
Cc1noc(C)c1NC(=O)Nc1ccc2c(c1)C(=O)N([C@@H](C)CO)C[C@@H](C)[C@@H](CN(C)C(=O)Nc1ccc3c(c1)OCO3)OCCCC[C@@H](C)O2 | inactive: 0.984
Cc1noc(C)c1NC(=O)N(C)C[C@H]1Oc2ccc(NC(=O)CCN3CCOCC3)cc2CC(=O)N([C@@H](C)CO)C[C@@H]1C | inactive: 0.996
COc1ccc(NC(=O)Nc2ccc3c(c2)C(=O)N([C@@H](C)CO)C[C@@H](C)[C@@H](CN(C)Cc2ccc(C(=O)O)cc2)OCCCC[C@@H](C)O3)cc1 | inactive: 1.01
C[C@H]1CN([C@@H](C)CO)C(=O)Cc2cc(NC(=O)Nc3ccc(C(F)(F)F)cc3)ccc2O[C@@H]1CN(C)S(=O)(=O)c1ccc(Cl)cc1 | inactive: 1.01
C[C@H]1CN([C@@H](C)CO)C(=O)c2cc(NC(=O)CCCN(C)C)ccc2O[C@H]1CN(C)C(=O)NC1CCCCC1 | inactive: 0.987
C[C@H]1CN([C@@H](C)CO)C(=O)c2cccc(NS(=O)(=O)c3ccc(Cl)cc3)c2O[C@H]1CN(C)Cc1ccc(-c2ccccc2)cc1 | inactive: 1.03
CC1OC(OC2C(Oc3cc(O)c4c(=O)cc(-c5ccc(O)cc5)oc4c3)OC(CO)C(O)C2O)C(O)C(O)C1O (configuration not stated) | inactive: 1.08

SMILES | relative growth
Cc1noc(C)c1S(=O)(=O)Nc1ccc2c(c1)CC(=O)N([C@@H](C)CO)C[C@@H](C)[C@@H](CN(C)C(=O)Nc1ccccc1)O2 | inactive: 0.986
O=C(C[C@H]1CC[C@H](NC(=O)Nc2ccc3c(c2)OCO3)[C@H](CO)O1)NCCCN1CCOCC1 | inactive: 0.981
C[C@H]1CN([C@@H](C)CO)C(=O)c2cc(/C=C/c3ccccc3)cnc2O[C@@H]1CN(C)C(=O)C1CCOCC1 | inactive: 0.98
CO[C@@H]1CN(C)C(=O)c2cc(NS(=O)(=O)CC(F)(F)F)ccc2OC[C@@H](C)N(C(=O)NC(C)C)C[C@@H]1C | inactive: 0.991
COC(=O)C[C@H]1CC[C@@H]2[C@@H](COc3ccc(NS(=O)(=O)c4ccccc4Cl)cc3C(=O)N2C)O1 | inactive: 1.06
C[C@@H]1CN([C@H](C)CO)C(=O)c2cc(C#C[C@@H](C)O)cnc2O[C@H]1CN(C)C(=O)CN1CCOCC1 | inactive: 0.996
COc1cccc(S(=O)(=O)N[C@H]2C=C[C@@H](CC(=O)NC3CCC3)O[C@@H]2CO)c1 | inactive: 1
C[C@@H]1CCCCO[C@@H](CN(C)C(=O)c2ccccc2)[C@@H](C)CN([C@H](C)CO)C(=O)c2cc(NS(=O)(=O)c3cccs3)ccc2O1 | inactive: 1.01
O=C(C[C@H]1C[C@@H]2c3cc(NC(=O)Nc4ccc(C(F)(F)F)cc4)ccc3O[C@@H]2[C@@H](CO)O1)NCCc1ccccc1 | inactive: 0.963
Cn1c(Cl)cnc1CO | inactive: 0.983
C[C@@H]1CN([C@@H](C)CO)S(=O)(=O)c2ccc(C#CCN(C)C)cc2O[C@H]1CN(C)Cc1ccccc1F | inactive: 0.99
COc1ccccc1S(=O)(=O)N[C@H]1C=C[C@H](CC(=O)N2CCN(C)CC2)O[C@@H]1CO | inactive: 0.963
C[C@H](CO)N1C[C@H](C)[C@H](CN(C)S(=O)(=O)c2ccc(Cl)cc2)Oc2ccc(NC(=O)c3ccncc3)cc2CC1=O | inactive: 1.02
O=C(C[C@@H]1C[C@H]2c3cc(NC(=O)C4CCOCC4)ccc3O[C@H]2[C@H](CO)O1)NCCN1CCCCC1 | inactive: 0.993
COc1ccc2c3c([nH]c2c1)[C@@H](CO)N(C[C@]13CCN(CC1)Cc1cc(ccc1F)F)C(=O)Nc1ccc(cc1)F | inactive: 1.01
C[C@@H]1CCCCO[C@H](CN(C)Cc2ccncc2)[C@@H](C)CN([C@H](C)CO)C(=O)c2cc(NC(=O)C3CCCCC3)ccc2O1 | inactive: 0.971
C[C@H]1CN([C@@H](C)CO)C(=O)c2cccc(NC(=O)CCCCCC(=O)Nc3ccccc3N)c2O[C@@H]1CN(C)Cc1ccccc1 | inactive: 1.01
C(=C\c1ccncc1)/c1ccncc1 | inactive: 0.994
C=CCOC(=O)[C@H]1[C@@H]2C(=O)O[C@@H](c3ccccc3)[C@@H](c3ccccc3)N2[C@@H](c2ccc(OCCOC(=O)[C@H]3C[C@H]4C(=O)NCC(=O)N4[C@H]3c3cccc(OCCO)c3)cc2)[C@]12C(=O)Nc1ccc(I)cc12 | inactive: 1.05

SMILES | relative growth
COc1ccc(NC(=O)Nc2ccc3c(c2)C(=O)N([C@@H](C)CO)C[C@@H](C)[C@H](CN(C)S(=O)(=O)c2ccc(OC)cc2)OCCCC[C@H](C)O3)cc1 | inactive: 1.04
C[C@@H]1CCCCO[C@H](CN(C)CC2CC2)[C@@H](C)CN([C@H](C)CO)C(=O)c2cc(NC(=O)Nc3ccc(F)cc3)ccc2O1 | inactive: 0.977
NCc1cccc(COc2ccccc2)c1 | inactive: 0.985
Cc1ccc(S(=O)(=O)Nc2ccc3c(c2)C(=O)N([C@H](C)CO)C[C@@H](C)[C@@H](CN(C)S(C)(=O)=O)OCCCC[C@H](C)O3)cc1 | inactive: 0.997
C[C@H](CO)N1C[C@H](C)[C@@H](CN(C)Cc2ccc3c(c2)OCO3)Oc2ccc(NC(=O)c3ccncc3)cc2CC1=O | inactive: 1.01
C[C@@H]1CN([C@@H](C)CO)C(=O)Cc2cc(NS(=O)(=O)c3cn(C)cn3)ccc2O[C@@H]1CN(C)Cc1ccc(C(=O)Nc2ccccc2N)cc1 | inactive: 1
CN1C(=O)c2cc(NC(=O)c3ccc(F)cc3)ccc2OC[C@@H]2O[C@H](CC(=O)N3CCOCC3)CC[C@@H]21 | inactive: 0.899
CC(C)NC(=O)Nc1cccc2c1O[C@H](CN(C)S(=O)(=O)c1cccs1)[C@@H](C)CN([C@H](C)CO)C2=O | inactive: 1.03
C[C@@H]1CN([C@H](C)CO)C(=O)c2cc(NC(=O)Nc3ccc(C(F)(F)F)cc3)ccc2O[C@@H]1CN(C)C(=O)NC1CCCCC1 | inactive: 0.987
COc1ccc(CN(CCN(C)C)c2ncccn2)cc1.Cl | inactive: 1.08
CC(C)C#Cc1ccc2c(c1)O[C@@H](CN(C)C(=O)c1cnccn1)[C@H](C)CN([C@H](C)CO)S2(=O)=O | inactive: 0.977
CC=Cc1ccc2n(c1=O)C[C@H]1[C@H](CO)[C@@H](C(=O)NCCc3cn(C)cn3)N(C(=O)CC)[C@@H]21 | inactive: 1.03
Cc1noc(C)c1S(=O)(=O)Nc1ccc2c(c1)C(=O)N([C@@H](C)CO)C[C@H](C)[C@H](CN(C)Cc1ccccc1)OCCCC[C@H](C)O2 | inactive: 0.994
COc1ccc(CN(C)C[C@H]2OCCCC[C@@H](C)Oc3ccc(NC(=O)NC4CCCCC4)cc3C(=O)N([C@H](C)CO)C[C@@H]2C)cc1 | inactive: 0.963
COc1ccc(NC(=O)Nc2cccc3c2O[C@H](CN(C)CC2CCCCC2)[C@@H](C)CN([C@H](C)CO)C3=O)cc1 | inactive: 0.96
C[C@H](CO)N1C[C@H](C)[C@H](CN(C)S(=O)(=O)c2ccccc2F)Oc2ncc(C#Cc3ccncc3)cc2C1=O | inactive: 0.99
C[C@@H]1CN([C@@H](C)CO)C(=O)Cc2cc(NC(=O)Cn3cnnn3)ccc2O[C@H]1CN(C)C(=O)Nc1ccc(C(F)(F)F)cc1 | inactive: 0.993
CCC1OC(=O)C(C)C(OC2CC(C)(OC)C(O)C(C)O2)C(C)C(OC2OC(C)CC(N(C)C)C2O)C(C)(O)CC(C)C(=O)C(C)C(O)C1(C)O (configuration not stated) | inactive: 0.408
C[C@H]1CN([C@@H](C)CO)C(=O)c2cc(NS(=O)(=O)c3cn(C)cn3)ccc2O[C@H]1CN(C)S(=O)(=O)c1ccccc1 | inactive: 0.994
